Test results reported in US10299477B2 (priority 2015, dated 2019).

Key:
Type in all cases: in vivo
[1] = test system: Blumeria graminis f sp. hordei; test: Test Example D: Powdery mildew on barley; conditions: for Test D (control value class, powdery mildew on barley): in vivo; for Test D control value (powdery mildew on barley): preventive, control value class
From the text: [Test Example D] Powdery Mildew on Barley
After the sprayed dilutions were dried, conidia of Blumeria graminis f sp. hordei were inoculated to the plants by shaking off.

Alternaia brassicicola = test: Test Example C: Alternaria sooty spot on cabbage; conditions: for Test C (control value class, Alternaria sooty spot on cabbage): in vivo; for Test C control value (Alternaria sooty spot on cabbage): preventive, control value class
From the text: [Test Example C] Alternaria Sooty Spot on Cabbage
Seeds of a test plant (cabbage variety: Shikidori) were planted followed by cultivating until the cotyledons extended.

Puccinia recondita = test: Test Example E: Brown rust on wheat; conditions: for Test E (control value class, brown rust on wheat): in vivo; for Test E control value (brown rust on wheat): preventive, control value class
From the text: [Test Example E] Brown Rust on Wheat

Plasmopara viticola = test: Test Example G: Downy mildew on vine; conditions: for Test G (control value class, downy mildew on vine): 250 ppm, sprayed 2.5 ml/pot before inoculation; for Test G control value (downy mildew on vine): 250 ppm spray (2.5 ml/pot), preventive, control value class; for Test G (control value class): 250 ppm spray
From the text: [Test Example G] Downy Mildew on Vine
Seeds of a test plant (grape variety: Neomuscat) were planted followed by cultivating until three to four first leaves appeared. […] After the sprayed dilutions were dried, a zoosporangia suspension (1-2×10^4 zoosporangia/ml) of Plasmopara viticola was inoculated to the plants by spraying.

Botrytis cinerea = test: Test Example B: Gray mold on tomato; conditions: for Test B (control value class, gray mold on tomato): in vivo; for Test B control value (gray mold on tomato): preventive, control value class
From the text: [Test Example B] Gray Mold on Tomato
Seeds of a test plant (tomato variety: Oogata Fukuju) were planted followed by cultivating until three to five first leaves (true leaves) appeared.

[2] = evaluated 7-10 days after inoculation
[3] = powdery mildew on barley, 250 ppm spray
[4] = Alternaria sooty spot on cabbage, 250 ppm spray
[5] = brown rust on wheat, Puccinia recondita, 250 ppm spray
[6] = downy mildew on vine, Plasmopara viticola, 7-10 days after inoculation
[7] = gray mold on tomato, Botrytis cinerea, 250 ppm spray

CCOc1cc(F)c(-c2c(-c3cccc(OC)c3Cl)ccc(=O)n2CC)c(F)c1 [Compound 634]
Test D (control value class, powdery mildew on barley) [1]: H (H shows more than 50% of control values)
Test C (control value class, Alternaria sooty spot on cabbage) (Alternaia brassicicola): H (H shows more than 50% of control values)
Test E (control value class, brown rust on wheat) (Puccinia recondita): H (H shows more than 50% of control values)
Test G (control value class, downy mildew on vine) (Plasmopara viticola; [2]): H (H shows more than 50% of control values)
Test B (control value class, gray mold on tomato) (Botrytis cinerea): H (H shows more than 50% of control values)

CCn1c(-c2ccccc2F)c(-c2cc(OC)cc(OC)c2Br)ccc1=O [Compound 231]
Test D control value (powdery mildew on barley) ([1]; 250 ppm spray): H (H shows more than 50% of control values)
Test C control value (Alternaria sooty spot on cabbage) (Alternaia brassicicola; 250 ppm spray): H (H shows more than 50% of control values)
Test E control value (brown rust on wheat) (Puccinia recondita; 250 ppm spray): H (H shows more than 50% of control values)
Test G control value (downy mildew on vine) (Plasmopara viticola; 7-10 days after inoculation): H (H shows more than 50% of control values)
Test B control value (gray mold on tomato) (Botrytis cinerea; 250 ppm spray): H (H shows more than 50% of control values)

COc1cc(F)c(-c2c(-c3cc(F)ccc3Cl)ccc(=O)n2C)c(F)c1 [Compound 760]
Test D (control value class) ([1]; Powdery mildew on barley, control value=100{1-(n/3)}): H (H shows more than 50% of control values)
Test C (control value class) (Alternaia brassicicola; Alternaria sooty spot on cabbage, control value=100{1-(n/3)}): H (H shows more than 50% of control values)
Test E (control value class) (Puccinia recondita; Brown rust on wheat, control value=100{1-(n/3)}): H (H shows more than 50% of control values)
Test G (control value class) (Plasmopara viticola; Downy mildew on vine, 2.5 ml/pot, evaluated 7-10 days after inoculation): L (L shows 50% or less of control values)
Test B (control value class) (Botrytis cinerea; Gray mold on tomato, control value=100{1-(n/3)}): H (H shows more than 50% of control values)

Cn1c(-c2c(F)cccc2F)c(-c2cccc(Cl)c2Cl)cc(Cl)c1=O [Compound 365]
Test D control value (powdery mildew on barley) ([1]; 250 ppm spray): H (H shows more than 50% of control values)
Test C control value (Alternaria sooty spot on cabbage) (Alternaia brassicicola; 250 ppm spray): H (H shows more than 50% of control values)
Test E control value (brown rust on wheat) (Puccinia recondita; 250 ppm spray): H (H shows more than 50% of control values)
Test G control value (downy mildew on vine) (Plasmopara viticola; 7-10 days after inoculation): L (L shows 50% or less of control values)
Test B control value (gray mold on tomato) (Botrytis cinerea; 250 ppm spray): H (H shows more than 50% of control values)

CCN1C(=O)CCC(c2cc(OC)cc(F)c2Cl)=C1c1c(F)cc(F)cc1F [Compound 614]
Test D (control value class, powdery mildew on barley) [1]: H (H shows more than 50% of control values)
Test C (control value class, Alternaria sooty spot on cabbage) (Alternaia brassicicola): H (H shows more than 50% of control values)
Test E (control value class, brown rust on wheat) (Puccinia recondita): H (H shows more than 50% of control values)
Test G (control value class, downy mildew on vine) (Plasmopara viticola; [2]): L (L shows 50% or less of control values)
Test B (control value class, gray mold on tomato) (Botrytis cinerea): H (H shows more than 50% of control values)

CCn1c(-c2c(F)cc(F)cc2F)c(-c2ccccc2Cl)cc(C)c1=O [Compound 687]
Test D (control value class, powdery mildew on barley) [1]: H (H shows more than 50% of control values)
Test C (control value class, Alternaria sooty spot on cabbage) (Alternaia brassicicola): H (H shows more than 50% of control values)
Test E (control value class, brown rust on wheat) (Puccinia recondita): H (H shows more than 50% of control values)
Test G (control value class, downy mildew on vine) (Plasmopara viticola; [2]): H (H shows more than 50% of control values)
Test B (control value class, gray mold on tomato) (Botrytis cinerea): H (H shows more than 50% of control values)

O=c1ccc(-c2cc(Cl)ccc2Cl)c(-c2c(F)cccc2F)n1CC(F)F [Compound 448]
Test D (control value class) [1, 3]: H (H shows more than 50% of control values)
Test C (control value class) (Alternaia brassicicola; [4]): L (L shows 50% or less of control values)
Test E (control value class) (Puccinia recondita; [5]): L (L shows 50% or less of control values)
Test G (control value class) (Plasmopara viticola; [6]): L (L shows 50% or less of control values)
Test B (control value class) (Botrytis cinerea; [7]): H (H shows more than 50% of control values)

COc1cc(F)c(-c2c(-c3cc(F)cc(F)c3Cl)cc(Cl)c(=O)n2CC(F)F)c(F)c1 [Compound 679]
Test D (control value class, powdery mildew on barley) [1]: H (H shows more than 50% of control values)
Test C (control value class, Alternaria sooty spot on cabbage) (Alternaia brassicicola): H (H shows more than 50% of control values)
Test E (control value class, brown rust on wheat) (Puccinia recondita): H (H shows more than 50% of control values)
Test G (control value class, downy mildew on vine) (Plasmopara viticola; [2]): L (L shows 50% or less of control values)
Test B (control value class, gray mold on tomato) (Botrytis cinerea): H (H shows more than 50% of control values)

CCOc1cc(F)c(-c2c(-c3ccccc3F)ccc(=O)n2C)c(F)c1 [Compound 591]
Test D (control value class, powdery mildew on barley) [1]: H (H shows more than 50% of control values)
Test C (control value class, Alternaria sooty spot on cabbage) (Alternaia brassicicola): H (H shows more than 50% of control values)
Test E (control value class, brown rust on wheat) (Puccinia recondita): H (H shows more than 50% of control values)
Test G (control value class, downy mildew on vine) (Plasmopara viticola; [2]): H (H shows more than 50% of control values)
Test B (control value class, gray mold on tomato) (Botrytis cinerea): H (H shows more than 50% of control values)

Cn1c(-c2c(F)cc(F)cc2F)c(-c2cc(F)c(F)cc2F)ccc1=O [Compound 639]
Test D (control value class, powdery mildew on barley) [1]: H (H shows more than 50% of control values)
Test C (control value class, Alternaria sooty spot on cabbage) (Alternaia brassicicola): H (H shows more than 50% of control values)
Test E (control value class, brown rust on wheat) (Puccinia recondita): H (H shows more than 50% of control values)
Test G (control value class, downy mildew on vine) (Plasmopara viticola; [2]): H (H shows more than 50% of control values)
Test B (control value class, gray mold on tomato) (Botrytis cinerea): H (H shows more than 50% of control values)

COCCOc1ccc(Cl)c(-c2ccc(=O)n(C)c2-c2c(F)cccc2F)c1 [Compound 240]
Test D control value (powdery mildew on barley) ([1]; 250 ppm spray): H (H shows more than 50% of control values)
Test C control value (Alternaria sooty spot on cabbage) (Alternaia brassicicola; 250 ppm spray): H (H shows more than 50% of control values)
Test E control value (brown rust on wheat) (Puccinia recondita; 250 ppm spray): H (H shows more than 50% of control values)
Test G control value (downy mildew on vine) (Plasmopara viticola; 7-10 days after inoculation): H (H shows more than 50% of control values)
Test B control value (gray mold on tomato) (Botrytis cinerea; 250 ppm spray): H (H shows more than 50% of control values)

CCOc1cc(F)c(-c2c(-c3cccc(OC)c3Cl)ccc(=O)n2C)c(F)c1 [Compound 664]
Test D (control value class, powdery mildew on barley) [1]: H (H shows more than 50% of control values)
Test C (control value class, Alternaria sooty spot on cabbage) (Alternaia brassicicola): H (H shows more than 50% of control values)
Test E (control value class, brown rust on wheat) (Puccinia recondita): H (H shows more than 50% of control values)
Test G (control value class, downy mildew on vine) (Plasmopara viticola; [2]): H (H shows more than 50% of control values)
Test B (control value class, gray mold on tomato) (Botrytis cinerea): H (H shows more than 50% of control values)

Cn1c(-c2c(F)cccc2F)c(-c2c(F)cccc2Cl)ccc1=O [Compound 398]
Test D (control value class) [1, 3]: H (H shows more than 50% of control values)
Test C (control value class) (Alternaia brassicicola; [4]): H (H shows more than 50% of control values)
Test E (control value class) (Puccinia recondita; [5]): H (H shows more than 50% of control values)
Test G (control value class) (Plasmopara viticola; [6]): H (H shows more than 50% of control values)
Test B (control value class) (Botrytis cinerea; [7]): H (H shows more than 50% of control values)

COc1ccc(Cl)c(-c2cc(Cl)c(=O)n(C3CC3)c2-c2c(F)cccc2F)c1 [Compound 498]
Test D (control value class) [1, 3]: H (H shows more than 50% of control values)
Test C (control value class) (Alternaia brassicicola; [4]): H (H shows more than 50% of control values)
Test E (control value class) (Puccinia recondita; [5]): H (H shows more than 50% of control values)
Test G (control value class) (Plasmopara viticola; [6]): H (H shows more than 50% of control values)
Test B (control value class) (Botrytis cinerea; [7]): H (H shows more than 50% of control values)

Cn1c(-c2c(F)cccc2F)c(-c2cccc(F)c2F)cc(Br)c1=O [Compound 536]
Test D (control value class) [1, 3]: H (H shows more than 50% of control values)
Test C (control value class) (Alternaia brassicicola; [4]): H (H shows more than 50% of control values)
Test E (control value class) (Puccinia recondita; [5]): H (H shows more than 50% of control values)
Test G (control value class) (Plasmopara viticola; [6]): L (L shows 50% or less of control values)
Test B (control value class) (Botrytis cinerea; [7]): H (H shows more than 50% of control values)

CCN1C(=O)CCC(c2cc(OC)cc(OC)c2)=C1c1c(F)cccc1Cl [Compound 149]
Test D control value ([1]; Powdery mildew on barley): H (H shows more than 50% of control values)
Test C control value (Alternaia brassicicola; Alternaria sooty spot on cabbage): H (H shows more than 50% of control values)
Test E control value (Puccinia recondita; Brown rust on wheat): H (H shows more than 50% of control values)
Test G control value (Plasmopara viticola; Downy mildew on vine, 250 ppm sprayed before inoculation, 7-10 days after inoculation): H (H shows more than 50% of control values)
Test B control value (Botrytis cinerea; Gray mold on tomato): H (H shows more than 50% of control values)
